In US20220332832A1, “COMBINED CANCER THERAPY OF ANTI-GALECTIN-9 ANTIBODIES AND CHEMOTHERAPEUTICS” (New York University, priority 2019, published 2022):

Columns and labels:
[1] = test system: orthotopic KPC models; assay: Orthotopic KPC models: tumor growth and survival; type: in vivo
[2] = single i.v. dose 10-70 mg/kg, necropsies Day 8 and Day 22
[3] = Once weekly repeat-dose intravenous toxicity study in rats; type: in vivo
Experimental: The objective of this study was to evaluate potential toxicity of G9.2-17, an IgG4 human monoclonal antibody directed against galectin-9 at different doses, when administered by intravenous injection to Sprague Dawley Rats once weekly for 4 consecutive weeks followed by a 3-week post dose recovery period. In addition, the toxicokinetic characteristics of G9.2-17 were determined.
One hundred eighty-six animals (Sprague Dawley rats) were assigned to treatment groups randomly by body weight. Control Article/Vehicle, Formulation Buffer for Test Article, and test article, G9.2-17, were administered via a single IV injection in a tail vein at dose levels of 0, 100, and 300 mg/kg once on Days 1, 8, 15, 22, and 29. Test article was administered at dose levels of 100 and 300 mg/kg once on Day 1 to animals assigned to the SSD subgroup.
Clinical observations were performed once daily prior to room cleaning in the morning, beginning on the second day of acclimation. A mortality check was conducted twice daily to assess general animal health and wellness. Food consumption was estimated by weighing the supplied and remaining amount of food in containers once weekly. The average gram (g)/animal/day was calculated from the weekly food consumption. Body weights were taken prior to randomization, on Day -1, then once weekly throughout the study, and on the day of each necropsy. Functional Observation Battery (FOB) observations were recorded for SSB animals approximately 24 hours post dose administrations on Days 1, 35 and 49. Urine was collected overnight using metabolic cages. Samples were obtained on Days 36 and 50.
Animals were fasted overnight prior to each series of collections that included specimens for serum chemistry. In these instances associated clinical pathology evaluations were from fasted animals. […]
Parameters assessed during the In-life examinations of the study included clinical observations, food consumption, body weights, functional observational battery. […] At each necropsy, gross observations and organ weights were recorded, and tissues were collected for microscopic examination.

[4] = Once weekly 5-week intravenous infusion toxicity and toxicokinetic study in monkeys; type: in vivo, cynomolgus monkeys
[5] = test system: mouse model KPC004; assay: Active dose in mouse model KPC004 and alternate models; type: in vivo
Experimental: The lowest anticipated pharmacologically active dose (PAD) is currently estimated to be 2 mg/kg, based on the mouse model KPC004 data, in which 50 mcg/mouse (2 mg/kg; human equivalent dose HED=0.16 mg/kg) was established as an active dose. Alternate models were active at the 200 or 400 mcg/mouse dose range (8-16 mg/kg; HED=0.65-1.3 mg/kg).

[6] = Experimental: The vehicle and test article were administered once via IV infusion for 30 minutes during the study via a catheter percutaneously placed in the saphenous vein. The dose levels were 30, 100, and 200 mg/kg and administered at a dose volume of 20 mL/kg.
The animals were placed in sling restraints during dosing. The vehicle or test article were based on the most recent body weights and administered using an infusion pump and sterile disposable syringes. The dosing syringes were filled with the appropriate volume of vehicle or test article (20 mL/kg with 2 mL extra). At the completion of dosing, the animals were removed from the infusion system. The weight of each dosing syringe was recorded prior to the start and end of each infusion to determine dose accountability.
The animals were removed from the cage, and a detailed clinical examination of each animal was performed at 1 and 4.5 hours post-start of infusion (SOI) on Day 1 and once daily thereafter during the study. The animals were removed from the cage, and a detailed clinical examination of each animal was performed at 1 and 4.5 hours post-start of infusion (SOI) on Day 1 and once daily thereafter during the study. Body weights for all animals were measured and recorded at transfer, prior to randomization, on Day -1, and weekly during the study.
Clinical pathology evaluations (hematology, coagulation, and clinical chemistry) were conducted on all animals pretest and on Days 1 (prior to dosing), 3, 8, and 21. Additional samples for the determination of hematology parameters and peripheral blood lymphocyte and cytokine analysis samples were collected at 30 minutes (immediately after the end of infusion) and 4.5, 8.5, 24.5, and 72.5 hours post-SOI (relative to Day 1). Bone marrow smears were collected and preserved.
For processing, blood samples were collected in non-additive barrier free microtubes and centrifuged at controlled room temperature within 1 hour of collection. The resulting serum was divided into 2 approximately equal aliquots in pre labeled cryovials. All aliquots were stored frozen at -60° C. to -90° C. within 2 hours of collection.
Postmortem study evaluations were performed on all animals euthanized at the scheduled necropsy.
Necropsy examinations were performed under procedures approved by a veterinary pathologist. The animals were examined carefully for external abnormalities including palpable masses. The skin was reflected from a ventral midline incision and any subcutaneous masses were identified and correlated with antemortem findings. The abdominal, thoracic, and cranial cavities were examined for abnormalities. The organs were removed, examined, and, where required, placed in fixative. All designated tissues were fixed in neutral buffered formalin (NBF), except for the eyes (including the optic nerve) and testes. The eyes (including the optic nerve) and testes were placed in a modified Davidson's fixative, and then transferred to 70% ethanol for up to three days prior to final placement in NBF. Formalin was infused into the lung via the trachea. A full complement of tissues and organs was collected from all animals.

B1: G9.2-17 IgG4: anti-galectin-9 IgG4 fully human antibody; VH SEQ ID NO: 7, VL SEQ ID NO: 8; heavy chain SEQ ID NO: 19, light chain SEQ ID NO: 15 (antibody, listed as Homo sapiens)
heavy: EVQLVESGGGLVQPGGSLRLSCAASGFTVSSSSIHWVRQAPGKGLEWVAYISSSSGYTYYADSVKGRFTISADTSKNTAYLQMNSLRAEDTAVYYCARYWSYPSWWPYRGMDYWGQGTLVTVSSASTKGPSVFPLAPCSRSTSESTAALGCLVKDYFPEPVTVSWNSGALTSGVHTFPAVLQSSGLYSLSSVVTVPSSSLGTKTYTCNVDHKPSNTKVDKRV[letters of human IgG4 Fc with S228P L445P (EU numbers) not shown]
light: DIQMTQSPSSLSASVGDRVTITCRASQSVSSAVAWYQQKPGKAPKLLIYSASSLYSGVPSRFSGSRSGTDFTLTISSLQPEDFATYYCQQSSTDPITFGQGTKVEIKRTVAAPSVFIFPPSDEQLKSGTASVVCLLNNFYPREAKVQWKVDNALQSGNSQESVTEQDSKDSTYSLSSTLTLSKADYEKHKVYACEVTHQGLSSPVTKSFNRGEC
[1]
  extension of survival of KPC animals: more than double
  pancreatic tumor growth halted: 50%
[2]
  mortality: no unscheduled deaths
[3]; 100 and 300 mg/kg IV on Days 1, 8, 15, 22, 29, rat
  serum concentrations of IL-2, IL-4, IFN-γ, IL-5, IL-6, IL-10, TNF-α, MCP-1 and MIP-1b: no G9.2-17-related changed
[3]; 100 and 300 mg/kg IV once weekly, 5 doses, rat
  FOB parameters: no G9.2-17-related changes
[3]; necropsy Days 36 and 50
  absolute or relative organ weights: no G9.2-17-related changes in absolute or relative organ weights
[4]; 100 and 300 mg/kg/dose weekly x5, treatment or recovery periods
  functional observational battery (FOB) observations: No test article-related FOB observations
[4]; any dose level or timepoint
  effects on cytokines: No definitive G9.2-17-relatyed effects
[4]; serum, LLOQ <0.04 ug/mL, 100 and 300 mg/kg/dose
  serum concentration quantifiable after dose administration: quantifiable in all cynomolgus monkey samples from all G9.2-17-dosed animals
[5]; alternate models, 200 or 400 mcg/mouse
  active dose range: 8 to 16 mg/kg
[5]; estimated, based on mouse model KPC004 data
  lowest anticipated pharmacologically active dose (PAD): 2 mg/kg
[5]; mouse model KPC004
  active dose: 50 mcg/mouse
[6]; cynomolgus monkey, in vivo
  effects on clinical chemistry endpoints: no G9.2-17 IgG4-related effects on clinical chemistry endpoints
  effects on coagulation times or fibrinogen concentrations: no G9.2-17 IgG4-related effects on coagulation times
  effects on cytokine endpoints: no G9.2-17 IgG4-related effects on cytokine endpoints
  effects on hematology endpoints: no G9.2-17 IgG4-related effects on hematology endpoints
[6]; single IV infusion 30-200 mg/kg, 3-week observation
  mortality: All animals survived to the scheduled necropsy on Day 22

Where two headings read alike, the source gives them in different places.
